# Laboratory results published in article PMC4336329 (PLoS ONE, 2015).
# In all, about 310,000 compounds went through this assay and about 14,000 (4.5%) showed an effect of 50% or more. The effect is printed as a negative number. This is one part of the list.
# Target: human ether-à-go-go-related gene (hERG) potassium channel (human, UniProt Q12809)
# Assay: primary screen, population patch clamp on CHO cells stably expressing hERG
# 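Also: peak tail current of the secondary pulse compared with the same well before compound.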
# Chain of human ether-à-go-go-related gene (hERG) potassium channel (Q12809 whole entry, looked up): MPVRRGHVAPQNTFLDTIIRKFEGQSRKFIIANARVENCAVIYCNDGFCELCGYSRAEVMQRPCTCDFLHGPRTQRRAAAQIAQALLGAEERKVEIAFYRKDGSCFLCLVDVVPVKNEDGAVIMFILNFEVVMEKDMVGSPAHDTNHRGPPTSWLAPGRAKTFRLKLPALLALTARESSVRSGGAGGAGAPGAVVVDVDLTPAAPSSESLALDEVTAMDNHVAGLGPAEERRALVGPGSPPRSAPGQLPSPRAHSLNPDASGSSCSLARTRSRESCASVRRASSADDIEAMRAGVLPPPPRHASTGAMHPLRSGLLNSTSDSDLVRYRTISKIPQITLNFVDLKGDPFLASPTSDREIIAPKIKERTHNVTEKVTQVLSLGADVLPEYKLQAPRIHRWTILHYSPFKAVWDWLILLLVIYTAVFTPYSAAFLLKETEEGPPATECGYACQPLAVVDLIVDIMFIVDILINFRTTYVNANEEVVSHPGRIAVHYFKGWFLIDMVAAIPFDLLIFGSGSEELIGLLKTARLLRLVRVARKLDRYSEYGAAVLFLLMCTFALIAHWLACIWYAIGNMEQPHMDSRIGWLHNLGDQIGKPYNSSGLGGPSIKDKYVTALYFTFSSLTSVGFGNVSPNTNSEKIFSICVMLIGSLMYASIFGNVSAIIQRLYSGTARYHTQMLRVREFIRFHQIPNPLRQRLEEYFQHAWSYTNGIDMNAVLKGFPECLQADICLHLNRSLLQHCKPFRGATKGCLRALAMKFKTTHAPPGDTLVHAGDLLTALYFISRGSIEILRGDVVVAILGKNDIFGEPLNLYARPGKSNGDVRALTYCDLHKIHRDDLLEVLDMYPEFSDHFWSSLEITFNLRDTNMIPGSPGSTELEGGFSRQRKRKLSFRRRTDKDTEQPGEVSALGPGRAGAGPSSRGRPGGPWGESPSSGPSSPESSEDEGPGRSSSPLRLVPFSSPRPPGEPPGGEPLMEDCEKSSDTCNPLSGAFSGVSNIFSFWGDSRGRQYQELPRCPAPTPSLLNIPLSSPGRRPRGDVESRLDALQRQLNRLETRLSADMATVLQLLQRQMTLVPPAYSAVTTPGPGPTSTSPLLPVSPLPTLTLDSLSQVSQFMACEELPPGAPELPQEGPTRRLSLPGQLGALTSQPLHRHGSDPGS
row,Structure (SMILES),"hERG current change (%, negative = inhibition) at 10uM [%]"
1,Cc1c(/C=N/Nc2ccc([N+](=O)[O-])cn2)c2ccccc2n1Cc1ccccc1,20.4
2,CCCNc1nc(Cl)nc(NC(C)(C)C)n1,-0.3
3,COC(=O)[C@@H]1C[C@H]1[C@@H](NC(=O)c1ccccc1)c1ccccc1,-11.9
4,Cc1nn(C)cc1C(=O)/C=C/c1ccc([N+](=O)[O-])cc1,-12.4
5,CCCCn1nc(NC(=O)CC(C)C)c2cc3cc(OC)ccc3nc21,12.1
6,CN(C)S(=O)(=O)c1ccc(C(=O)/C=C/c2cccnc2)cc1,2.22
7,N=C1C(c2nc3ccccc3c(=O)[nH]2)=C(O)CN1CCc1ccccc1,12
8,CN1CCN(C(=O)C2=C[C@@H](c3coc4ccccc4c3=O)C[C@@H](OCc3ccc(CO)cc3)O2)CC1,-22.5
9,CC1CCc2c(sc(NC(=O)c3ccco3)c2C(=O)O)C1 (centres unmarked),30.3
10,COc1ccc(-c2noc(CCCC(=O)NCC3CCCO3)n2)cc1 (centres unmarked),15
11,O=C(c1c(Cl)cccc1Cl)N1CCN(c2ncccn2)CC1,11.9
12,Cn1cc(/C=N/Nc2ccccc2)c2ccccc21,15.4
13,CCOC(=O)c1cnc(SC)nc1Oc1cccc(NS(=O)(=O)c2ccc(C)cc2)c1,-6.83
14,CN(C)c1ccc(S(=O)(=O)N2CCCCC2)cc1NC(=O)COc1ccccc1F,-5.89
15,COc1ccc(CC(=O)Nc2ccccc2C(=O)N2CCOCC2)cc1OC,19.9
16,N#CCSc1nnc(N)s1,4.55
17,Cc1cccc(C(=O)Nc2ccccc2C(=O)NCc2ccco2)c1,-26.3
18,CC(C)(C)OC(=O)[C@H](Cc1ccccc1)NC(=O)c1nc[nH]c1C(=O)N1CCN(C(=O)OC(C)(C)C)CC1,-18.2
19,O=C(O)c1cccc(CSc2ncn[nH]2)c1,1.15
20,O=C(O)c1c(Cl)c(Cl)c(Cl)c(Cl)c1C(=O)N1CCOCC1,19.2
21,O=C1CSC(=Nc2ccc(Cl)cc2)N1Cc1cccnc1,-5.63
22,O=C(N/N=C/c1c[nH]c2ccccc12)C1COc2ccccc2O1 (centres unmarked),-5.33
23,COC(=O)C(CC(C)C)NC(=O)c1cccs1 (centres unmarked),16

row,Structure (SMILES),"hERG current change (%, negative = inhibition) at 10uM [%]"
1,O=C(Cc1cccs1)Nc1nnc(-c2ccc(F)cc2)s1,5.75
2,Cc1nc(=O)c(-c2ccccc2)c(C)n1-c1cccc(C(=O)O)c1,9.23
3,O=C(CSc1nnc(C2CCCCC2)n1-c1ccccc1)NCc1ccco1,-21.4
4,COC(=O)c1ccc(C(=O)OC)c(NC(=O)C2CCCO2)c1 (centres unmarked),10.5
5,Cc1cccc(-n2nnnc2SCC(=O)Nc2ccc(N3CCN(C)CC3)cc2)c1,-55
6,CCOC(=O)c1c(NC(=O)c2ccc(Cl)s2)sc(C)c1C,13.4
7,Cc1ccc2c(c1)N(CC(=O)OC(CC(C)C)C(=O)NC1CCCC1)C(=O)CO2 (centres unmarked),-47.4
8,Cc1ccc(C(=O)Cn2c(-c3ccccc3)noc2=O)cc1,-12.5
9,CCCn1nc(NC(=O)c2cccs2)c2cc3cccc(C)c3nc21,-30.1
10,CSc1ccc(C(=O)N2CCC(CCC(=O)NC3CC3)CC2)cc1,-30.8
11,CCn1c(=S)sc2c(=O)n(CC(=O)Nc3ccc(Cl)cc3)c(C)nc21,15.3
12,O=C(Nc1ccc2c(c1)CCC2)Nc1ccc2c(c1)OCO2,6.88
13,CC1O[C@@H](O[C@H](C)CC[C@@H](C)O)C(O)C[C@H]1O (some centres unmarked),8.55
14,O=C1[C@@H]2[C@@H]3C[C@@H]([C@H]4ON=C(c5ccc(Cl)cc5)[C@@H]34)[C@@H]2C(=O)N1c1ccc2c(c1)OCO2,-9.76
15,COc1ccc(C(=O)N2CCC(C(=O)N3CCN(c4ccc(OC)cc4)CC3)CC2)cc1,-43.5
16,CCOC(=O)c1[nH]ncc1CN1CCC(Cc2cccc(OC)c2)(C(=O)OCC)CC1,-37.6
17,Cc1cc(C)c2ccc(N)nc2c1O,-8.87
18,CCCCn1c(N)c(N(CCC(C)C)C(=O)C2CC(=O)N(c3ccc(OC)cc3OC)C2)c(=O)[nH]c1=O (centres unmarked),6.5
19,COc1ccc(-n2c(C)cc(C(=O)Cn3nnc4ccccc4c3=O)c2C)cc1,-8.12
20,COc1ccc2c(c1)CC/C(=C/c1ccccn1)C2=O,3.19
21,COc1cccc(C2=CC(=O)C[C@H](c3ccc(F)cc3)C2)c1OC,-31.9
22,CC1=C(C#N)C2(O)C(=O)c3ccccc3C2(O)N1 (centres unmarked),20.3
23,COC(=O)C1=C(C)N=c2s/c(=C/c3cccs3)c(=O)n2C1c1cccs1 (centres unmarked),-7.35

row,Structure (SMILES),"hERG current change (%, negative = inhibition) at 10uM [%]"
1,CC(=O)/C=C1/SC(CC(=O)O)C(=O)N1c1ccccc1 (centres unmarked),13.4
2,CCOC(=O)Cn1cc(/C=N/NC(=O)c2ccc(C#N)cc2F)c2ccccc21,-25.9
3,C=CCn1c(N)cc(=O)nc1SC(C)C(=O)Nc1cccc2ccccc12 (centres unmarked),16.5
4,COc1ccc(NC(=O)c2ccc(NC(=O)C(C)C)cc2)c([N+](=O)[O-])c1,23.1
5,COCCn1cnc2c1c(=O)n(CC(=O)c1ccc3c(c1)OCCO3)c(=O)n2Cc1ccccc1,-13.7
6,COc1cc(C(c2sc3ncnn3c2O)N2CCN(c3ccccc3F)CC2)cc(OC)c1OC (centres unmarked),-6.1
7,Cc1cccc(NC(=O)c2cccc3c2C(=O)c2ccccc2-3)c1,25.3
8,O=c1c(-c2ccccc2)coc2cc(O)ccc12,3.41
9,Cc1ccc(NC(=O)OCCN2CCN(Cc3ccccc3)CCC2=O)cc1C,-5.17
10,COc1ccc(-c2nc(-c3ccccn3)no2)cc1,15
11,O=C(NCCN1CCc2ccccc2C1)Nc1ccc(F)cc1,-37.5
12,N#Cc1ccsc1NC(=O)C1CCCN1S(=O)(=O)c1cccs1 (centres unmarked),9.71
13,CCCS(=O)(=O)N1CCCC(C(=O)N2CCOCC2)C1 (centres unmarked),5.04
14,CCCCCn1c(NCc2ccco2)nc2ccccc21,-74.8
15,N#Cc1ccc(/C=C/C(=O)c2cccnc2)cc1,-49.4
16,Fc1ccc(/C=N/Nc2nc3ccccc3[nH]2)cc1F,-22.1
17,O=C(COC(=O)c1ccc(S(=O)(=O)N2CCCC2)cc1)Nc1ccc(F)cc1F,9.22
18,Cc1ccc([N+](=O)[O-])c(OCCn2cnc3ccccc32)c1,5.57
19,CCC(CC)C(=O)Nc1cccc(C(=O)NCCc2ccccc2)c1,-7.6
20,Cc1cc(N/N=C(/CCC(=O)[O-])C(=O)[O-])nc2ccccc12.[K+],25.4
21,C(=N\n1cnnc1)/c1cccc(OCCOc2ccccc2)c1,-3.91
22,O=C1NC[C@@H](Cc2cccc3ccccc23)N(CC2CCCCC2)C1=O,-5.73
23,CN(C)c1c([N+](=O)[O-])ncn1C,-3.88

row,Structure (SMILES),"hERG current change (%, negative = inhibition) at 10uM [%]"
1,Fc1ccc2nc(C3CCCCN3Cc3nc(CC4CC4)no3)[nH]c2c1 (centres unmarked),0.821
2,CCc1ccc(OCCCC(=O)Nc2ccc(S(=O)(=O)Nc3cc(C)nc(C)n3)cc2)cc1,21.3
3,Cc1ccc2cc(CN(Cc3nnnn3Cc3ccco3)CC3CCCO3)c(=O)[nH]c2c1C (centres unmarked),-22.8
4,COc1cccc(C2NC(=O)NC(O)(C(F)(F)F)C2C(=O)c2cccnc2)c1OC (centres unmarked),-5.78
5,CCOC(=O)c1sc(N)nc1C(C)C,-2.86
6,O=[N+]([O-])c1cc(/C=N/N/C(=N/c2ccccn2)c2ccccn2)ccc1O,7.8
7,CCOC(=O)C1=C(C)NC(C)=C(C(=O)OCC)C1C(=O)O,-7.57
8,CCCCN(C(=O)Cn1nnc2ccccc21)C(C(=O)NCCOC)c1cccs1 (centres unmarked),20.4
9,Cc1nc2ccccc2n1C1CC(=O)N(Cc2ccccc2)C1=O (centres unmarked),13.2
10,CCCCc1nc2cc(C(=O)NCCc3c(C)n[nH]c3C)ccc2o1,6.23
11,CNC(=S)N1CCc2sccc2C1C (centres unmarked),-3.77
12,O=c1[nH]c(O)c(N=Nc2cc(C(F)(F)F)ccc2Cl)c(=O)[nH]1,20.6
13,O=C(O)Cc1ccc(NC(=O)c2ccc(Cl)c(Cl)c2)cc1,18.4
14,CCC(=O)N1CCc2cc(Br)cc(S(=O)(=O)N3CCC(C(=O)NCCCOC(C)C)CC3)c21,-12.2
15,Cc1cccn2c(=O)c(C=O)c(N3CCC4(CC3)OCCO4)nc12,-1.14
16,Cc1ccc(C(C)C)c(OCc2nnc(SCC(=O)Nc3nccs3)n2C)c1,6.67
17,CC(=O)N1N=C(c2ccco2)CC1c1ccc(C)cc1 (centres unmarked),-4.3
18,COC(=O)c1cc(C(=O)Nc2nc3ccccc3[nH]2)cc([N+](=O)[O-])c1,15.7
19,Cc1ccc(Cl)c(OCC(=O)N(C)CC(=O)Nc2ccc(N3CCOCC3)cc2)c1,9.14
20,CC(C)(C)Nc1c(-c2cccs2)nc2ccccn12,5.42
